Measured values reported in the supplement of paper PMC4604168 (melanoma cell lines).
The list shows a part of the results. Most values come without repeats; read them as rough.

Columns and labels:
Assay in all cases: cell count relative to DMSO control; melanoma cells; higher = more viable cells
Conditions in all cases: library dose: low library concentration; 72 h
MZ2-MEL = tested on: MZ2-MEL
MeWo = tested on: MeWo
RPMI7951 = tested on: RPMI7951
RVH-421 = tested on: RVH-421
SkMel28 = tested on: SkMel28
SkMel30 = tested on: SkMel30
SkMel5 = tested on: SkMel5
UACC257 = tested on: UACC257
UACC62 = tested on: UACC62
SkMel2 = tested on: SkMel2
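Also: cell number obtained by counting DAPI-stained nuclei in high-throughput microscope images with image analysis software, screen run in 1,536-well plates.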

SMILES	cell count (MZ2-MEL) [%]	cell count (MeWo) [%]	cell count (RPMI7951) [%]	cell count (RVH-421) [%]	cell count (SkMel28) [%]	cell count (SkMel30) [%]	cell count (SkMel5) [%]	cell count (UACC257) [%]	cell count (UACC62) [%]	cell count (SkMel2) [%]
Cn1nnc2c(C(N)=O)ncn2c1=O [temozolomide] + COc1ccc2c(c1)CCC1C2CCC2(C)C(NCCCCCCN3C(=O)C=CC3=O)CCC12 [U73122] (first compound 2 µM, partner dose 0.4 µM)	90.3	101	82.9	114	89.2	84.4	114	82.6	79.7	–
O=C(Nc1cc(C(F)(F)F)cc(C(F)(F)F)c1)c1cc(Cl)ccc1O + CCN(CC)CCNC(=O)c1c(C)[nH]c(/C=C2\C(=O)Nc3ccc(F)cc32)c1C [sunitinib] (first compound 0.016 µM, partner dose 0.4 µM)	104	87.6	104	114	117	98.4	–	–	101	122
O=C(Nc1cc(C(F)(F)F)cc(C(F)(F)F)c1)c1cc(Cl)ccc1O + Cc1nc(Nc2ncc(C(=O)Nc3c(C)cccc3Cl)s2)cc(N2CCN(CCO)CC2)n1 [dasatanib] (first compound 0.016 µM, partner dose 0.004 µM)	78.5	86.4	64.2	78.5	64.1	92.7	–	–	103	96.4
O=C(Nc1cc(C(F)(F)F)cc(C(F)(F)F)c1)c1cc(Cl)ccc1O + C=CCNC1=C2C[C@@H](C)C[C@H](OC)[C@H](O)[C@@H](C)/C=C(\C)[C@H](OC(N)=O)[C@@H](OC)/C=C\C=C(/C)C(=O)NC(=CC1=O)C2=O [Tanespimycin] (first compound 0.016 µM, partner dose 0.002 µM)	99.4	96.4	91.3	100	108	109	–	–	92.9	103
Cc1cc(N2CCOCC2)cc2[nH]c(-c3c(NC[C@@H](O)c4cccc(Cl)c4)cc[nH]c3=O)nc12 + CCc1ccc(CCOc2ccc(CC3SC(=O)NC3=O)cc2)nc1 [pioglitazone] (first compound 0.2 µM, partner dose 2 µM)	102	93	122	97.1	83.7	78.7	84.9	83.1	76.5	–
Cn1nnc2c(C(N)=O)ncn2c1=O [temozolomide] + c1cc(-c2cnn3cc(-c4ccc(OCCN5CCCCC5)cc4)cnc23)ccn1 [Dorsomorphin] (first compound 2 µM, partner dose 0.4 µM)	84.4	97.3	99.3	102	72	85.2	85	89.8	69.6	–
O=C(Nc1cc(C(F)(F)F)cc(C(F)(F)F)c1)c1cc(Cl)ccc1O + COc1ccc(C2=N[C@@H](c3ccc(Cl)cc3)[C@@H](c3ccc(Cl)cc3)N2C(=O)N2CCNC(=O)C2)c(OC(C)C)c1 [Nutlin-3] (first compound 0.016 µM, partner dose 0.1 µM)	96.4	111	123	94.7	122	125	–	–	114	95.2
O=C(Nc1cc(C(F)(F)F)cc(C(F)(F)F)c1)c1cc(Cl)ccc1O + Nc1cccc2c1CN(C1CCC(=O)NC1=O)C2=O [lenalidomide] (first compound 0.016 µM, partner dose 1 µM)	110	102	127	91.2	107	99.6	–	–	109	103
Cn1nnc2c(C(N)=O)ncn2c1=O [temozolomide] + COC(=O)c1sccc1S(=O)(=O)Nc1ccc(Nc2ccccc2)cc1OC [GSK0660] (first compound 2 µM, partner dose 1 µM)	82.8	109	98.4	117	96.5	104	98.2	84.7	81.9	–
Cc1cc(N2CCOCC2)cc2[nH]c(-c3c(NC[C@@H](O)c4cccc(Cl)c4)cc[nH]c3=O)nc12 + COc1cc(N2CCC(N3CCN(C)CC3)CC2)ccc1Nc1ncc(Cl)c(Nc2ccccc2S(=O)(=O)C(C)C)n1 [NVP-TAE684] (first compound 0.2 µM, partner dose 0.08 µM)	94.7	96.2	89.1	104	89.4	84.9	84.6	77.3	106	–
O=C(O)c1ccc2c(c1)nc(Nc1cccc(Cl)c1)c1ccncc12 + Nc1ccn([C@@H]2O[C@H](CO)[C@@H](O)C2(F)F)c(=O)n1 [gemcitabine] (first compound 0.4 µM, partner dose 0.0004 µM)	77.2	89.4	94.8	94.9	103	79.8	–	–	103	88.9
O=C(O)c1ccc2c(c1)nc(Nc1cccc(Cl)c1)c1ccncc12 + Cc1nc(Nc2ncc(C(=O)Nc3c(C)cccc3Cl)s2)cc(N2CCN(CCO)CC2)n1 [dasatanib] (first compound 0.4 µM, partner dose 0.004 µM)	75	90.1	72.4	83.1	91.1	79.1	–	–	84.8	91.9
O=C(O)[C@@H]1[O][Sb](=[O])([O][Sb]2(=[O])[O][C@H]([C@H](O)CO)[C@H](O)[C@H](C(=O)O)[O]2)[O][C@H]([C@H](O)CO)[C@@H]1O (stereo partly drawn) [stibogluconate] + O=C(O)c1ccc2c(c1)nc(Nc1cccc(Cl)c1)c1ccncc12 [CX4945] (first compound 2 µM, partner dose 0.4 µM)	104	105	114	125	113	95.7	–	–	110	102
O=C(O)c1ccc2c(c1)nc(Nc1cccc(Cl)c1)c1ccncc12 + OCc1c[nH]c2ccccc12 [Indole-3-carbinol] (first compound 0.4 µM, partner dose 0.8 µM)	84.6	89.6	98.1	102	97.7	91.4	–	–	80.9	105
O=C(Nc1ccccc1)c1cc([N+](=O)[O-])ccc1Cl + COc1ccc2c(c1)CCC1C2CCC2(C)C(NCCCCCCN3C(=O)C=CC3=O)CCC12 [U73122] (first compound 2 µM, partner dose 0.4 µM)	95.5	95.3	94.6	89	98.7	106	84.6	87.6	84.5	–
O=C(O)c1ccc2c(c1)nc(Nc1cccc(Cl)c1)c1ccncc12 + COCC[n+]1c2c(n(Cc3cnccn3)c1C)C(=O)c1ccccc1C2=O [YM155] (first compound 0.4 µM, partner dose 0.0004 µM)	69.9	100	101	110	88.4	81.8	–	–	76.9	102
O=C(O)c1ccc2c(c1)nc(Nc1cccc(Cl)c1)c1ccncc12 + Cn1c(Nc2ccc(C(F)(F)F)cc2)nc2cc(Oc3ccnc(-c4ncc(C(F)(F)F)[nH]4)c3)ccc21 [CHIR265] (first compound 0.4 µM, partner dose 0.08 µM)	74.3	60.9	64.6	75.2	73.2	59	–	–	63.4	75.9
O=C(Nc1ccccc1)c1cc([N+](=O)[O-])ccc1Cl + COc1ccc(COc2ccc(Cc3cnc(N)nc3N)cc2OC)cc1 [GW2580] (first compound 2 µM, partner dose 1 µM)	103	96.3	82.4	97.8	105	116	85.5	83.4	95.7	–
O=C(Nc1cc(C(F)(F)F)cc(C(F)(F)F)c1)c1cc(Cl)ccc1O + CCCCCCCCCCCCCCCCCCOP(=O)([O-])OC1CC[N+](C)(C)CC1 [Perifosine] (first compound 0.016 µM, partner dose 0.4 µM)	93.5	101	115	79.4	104	99.1	–	–	89.9	96.7
O=C(Nc1cc(C(F)(F)F)cc(C(F)(F)F)c1)c1cc(Cl)ccc1O + Cc1ccc(Nc2nccc(N(C)c3ccc4c(C)n(C)nc4c3)n2)cc1S(N)(=O)=O [Pazopanib] (first compound 0.016 µM, partner dose 0.4 µM)	84.1	108	98.2	94.8	97.1	101	–	–	105	102
Cn1nnc2c(C(N)=O)ncn2c1=O [temozolomide] + O=C1NC(=O)/C(=C/c2ccc(-c3ccc(F)cc3O)o2)S1 [AS252424] (first compound 2 µM, partner dose 1 µM)	84.4	108	88.9	94.3	75.1	72.9	81.8	83.8	80.9	–
O=C(O)[C@@H]1[O][Sb](=[O])([O][Sb]2(=[O])[O][C@H]([C@H](O)CO)[C@H](O)[C@H](C(=O)O)[O]2)[O][C@H]([C@H](O)CO)[C@@H]1O (stereo partly drawn) [stibogluconate] + COc1ccc(Cl)c(Nc2nc3ccccc3nc2NS(=O)(=O)c2cccc(NC(=O)C(C)(C)N)c2)c1 [XL147] (first compound 2 µM, partner dose 0.8 µM)	83.1	88.8	73.8	113	106	100	–	–	97.7	92.1
Cc1cc(N2CCOCC2)cc2[nH]c(-c3c(NC[C@@H](O)c4cccc(Cl)c4)cc[nH]c3=O)nc12 + N#Cc1c(O)c2c(-c3ccc(-c4ccccc4O)cc3)csc2[nH]c1=O [A769662] (first compound 0.2 µM, partner dose 2 µM)	103	99.1	88.2	120	92.8	105	83	72.4	88.8	–
